Data taken from PubChem BioAssay (NCATS).
Inconclusive results, whose numbers are uncertain, are shown with a selection of clear calls. For some of these results: Where the call is inconclusive, the potency comes from a doubtful curve fit. The source made the active and inactive calls. Unless noted, calls come from the whole dose curve; as a rule, active = well fitted curve in the direction sought with a large enough effect; inconclusive = small, poorly fitted or top-dose-only effect, or another doubt; inactive = no such curve, though single readings can be large; an effect the other way counts as inactive or inconclusive.

Tests used:
[1] = P-glycoprotein substrates identified in KB-8-5-11 adenocarcinoma cell line, qHTS therapeutic library screen (AID 1346987); note: potency is the fitted concentration of half-maximal effect; nearly all actives have a fitted effect of over 65% in size
Outline: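 KB-8-5-11: colchicine-selected sub-line of KB-3-1 over-expressing P-gp; assay medium lacked colchicine. 72 h drug exposure at 37 degree C, CellTiter-Glo.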

[2] = system: Zika virus NS2B-NS3 protease (unlinked complex); test: Primary screen GU Rhodamine qHTS for Zika virus inhibitors: Unlinked NS2B-NS3 protease assay (AID 1347159); note: potency is the fitted concentration of half-maximal effect; nearly all actives have a fitted effect of over 60% in size
Outline: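 Noncovalent NS2B hydrophilic domain–NS3 protease domain complex (25 nM) preincubated 15 min at room temperature with compounds (up to 114 microM) in 10 mM Tris-HCl pH 8.0, 0.01% Tween 20; 1.5 microM Rhodamine110 substrate added, fluorescence change over 15 min fitted to Hill equation.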

[3] = Primary fluorescence-based thiol-reactive (MSTI) qHTS assay for identification of artifact compounds. (AID 1845221);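 note: potency is the fitted concentration of half-maximal effect; thiol-reactive compounds lower the probe fluorescence signal; nearly all actives have a fitted effect of over 65% in size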
Outline: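 Compounds were incubated 1 h at room temperature in the dark with the MSTI probe (4 uM) in PBS pH 7.4, 2% DMSO. Signals were normalized between Acetyl-MSTI and MSTI.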

HEK293 = test: Cytotoxic Profiling of Annotated Libraries Using Quantitative High-Throughput Screening (AID 1296008); settings: Five cell lines viability, CellTiter-Glo ATP luminescence, 48-72 h; max response: stronger effect = lower value; note: nearly all actives have a fitted effect of over 60% in size; note: potency is the fitted concentration of half-maximal effect; for max response: % is set by controls: 0 for no effect and ±100 for the full control effect
Outline: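 Compounds were pin-transferred onto cells and incubated 48 or 72 hr at 37 degree Celsius, 95% humidity. CellTiter-Glo was added, plates sat 10 min at room temperature, then ATP-coupled luminescence was imaged as the viability read-out.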

Tov-21-G = test: Primary qHTS to identify gynecologic anti-cancer compounds using libraries of approved drugs and bioactive compounds (AID 1345084); settings: Gynecologic cancer cell panel viability, ATPlite luminescence, 48 h; activity change, negative = cytotoxicity: at 57.5 µM (top of the series) unless noted; note: nearly all actives have a fitted effect of over 55% in size; note: potency is the fitted concentration of half-maximal effect; for activity change, negative = cytotoxicity: % is set by controls: 0 for no effect and ±100 for the full control effect
Outline: (§1)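 Luminescence from the ATPlite ATP-monitoring reagent indicates viable cell number; lower signal means cytotoxicity. Cells received compound 16 h after seeding and were exposed for 48 h across five concentrations.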

[4] = qHTS of pediatric cancer cell lines to identify multiple opportunities for drug repurposing: Primary screen for SK-N-MC cells (AID 1347093); settings: SK-N-MC viability, CellTiter-Glo luminescence, 48 h; activity change, negative = cytotoxic: at 46 µM (top of the series);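 note: plate controls were DMSO neutral control for no effect and bortezomib for full effect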
Outline: (§2)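 Metabolically active cells were quantified by ATP-dependent luminescence (CellTiter-Glo, 15 min at room temperature) following 48 h treatment. Cells had been plated at 500-1,000 per well and settled for 5 h beforehand.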

[5] = qHTS of pediatric cancer cell lines to identify multiple opportunities for drug repurposing: Primary screen for SK-N-SH cells (AID 1347098); note: potency is the fitted concentration of half-maximal effect; nearly all actives have a fitted effect of over 65% in size
Outline: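 Cells (500-1,000/well) rested 5 h, then received compounds for 48 h; metabolically active cells were measured by CellTiter-Glo luminescence. Final concentrations spanned up to 46 µM (MIPE, 11-point) or 0.59 nM-46 µM (NPC, 8-point) in primary screens, 11-point in follow-ups.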

[6] = qHTS of pediatric cancer cell lines to identify multiple opportunities for drug repurposing: Primary screen for Rh18 cells (AID 1347102); note: % is set by controls: 0 for no effect and ±100 for the full control effect; nearly all actives have a fitted effect of over 65% in size
Outline: (§3)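 Cells (500-1,000/well) in growth media were settled 5 h at 37 degrees C, then given compounds for 48 h. Viability was read as CellTiter-Glo luminescence. Primary runs used MIPE at 11 points (0.78 nM-46 µM) and NPC at 8 points (0.59 nM-46 µM); follow-ups used 11 points.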

[7] = qHTS of pediatric cancer cell lines to identify multiple opportunities for drug repurposing: Primary screen for RD cells (AID 1347104); settings: RD rhabdomyosarcoma viability, CellTiter-Glo luminescence, 48 h; activity change, negative = cytotoxic: at 46 µM (top of the series);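 note: plate controls were DMSO for no effect and bortezomib for full effect; nearly all actives have a fitted effect of over 55% in size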
Outline: (§4)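 Plated cells (500-1,000 per well, growth media) were allowed to settle for 5 hours, treated with compound dilutions for 48 hours, then lysed with CellTiter-Glo for 15 min at room temperature before luminescence reading.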

[8] = qHTS of pediatric cancer cell lines to identify multiple opportunities for drug repurposing: Primary screen for Rh41 cells (AID 1347108);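 note: luminescence drop marks cytotoxic hits; nearly all actives have a fitted effect of over 70% in size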
Outline: as §4

[9] = qHTS of pediatric cancer cell lines to identify multiple opportunities for drug repurposing: Confirmatory screen for NB1643 cells (AID 1347109);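 note: plate controls were DMSO for no effect and bortezomib for full effect; nearly all actives have a fitted effect of over 45% in size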
Outline: as §3

[10] = qHTS of pediatric cancer cell lines to identify multiple opportunities for drug repurposing: Confirmatory screen for SK-N-MC cells (AID 1347111);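 note: potency is the fitted concentration of half-maximal effect; cells exposed to compound for 48 h before the readout; nearly all actives have a fitted effect of over 70% in size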
Outline: as §2

[11] = qHTS of pediatric cancer cell lines to identify multiple opportunities for drug repurposing: Confirmatory screen for BT-12 cells (AID 1347112); note: potency is the fitted concentration of half-maximal effect; nearly all actives have a fitted effect of over 55% in size
Outline: as §3

[12] = qHTS of pediatric cancer cell lines to identify multiple opportunities for drug repurposing: Confirmatory screen for LAN-5 cells (AID 1347113); note: nearly all actives have a fitted effect of over 65% in size
Outline: as §3

[13] = qHTS of pediatric cancer cell lines to identify multiple opportunities for drug repurposing: Confirmatory screen for DAOY cells (AID 1347114)
Outline: (§5)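 Viability measured as metabolically active cells via CellTiter-Glo luminescence following 48 hours of compound exposure, 11-point dilutions in confirmatory testing. 500-1,000 cells/well plated 5 hours before dosing; controls were DMSO and 2.3 µM bortezomib.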

[14] = qHTS of pediatric cancer cell lines to identify multiple opportunities for drug repurposing: Confirmatory screen for NB-EBc1 cells (AID 1347115); settings: NB-EBc1 neuroblastoma cells, viability (cytotoxicity); activity change, negative = cytotoxic: at 45.9 µM (top of the series);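 note: cells exposed to compound for 48 h before the viability read; % is set by controls: 0 for no effect and ±100 for the full control effect; nearly all actives have a fitted effect of over 45% in size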
Outline: as §3

[15] = qHTS of pediatric cancer cell lines to identify multiple opportunities for drug repurposing: Confirmatory screen for SJ-GBM2 cells (AID 1347116); note: potency is the fitted concentration of half-maximal effect; nearly all actives have a fitted effect of over 60% in size
Outline: as §5

[16] = qHTS of pediatric cancer cell lines to identify multiple opportunities for drug repurposing: Confirmatory screen for MG 63 (6-TG R) cells (AID 1347119)
Outline: as §3

[17] = qHTS of pediatric cancer cell lines to identify multiple opportunities for drug repurposing: Confirmatory screen for U-2 OS cells (AID 1347122)
Outline: as §3

[18] = qHTS of pediatric cancer cell lines to identify multiple opportunities for drug repurposing: Confirmatory screen for RD cells (AID 1347124); settings: RD rhabdomyosarcoma cell viability; activity change, negative = cytotoxic: at 45.9 µM (top of the series)
Outline: as §3

[19] = Primary qHTS for small molecule stabilizers of the endoplasmic reticulum resident proteome: Secreted ER Calcium Modulated Protein (SERCaMP) assay (AID 1508630); settings: SH-SY5Y GLuc-SERCaMP (Gaussia luciferase released on ER calcium loss) secretion, thapsigargin, luminescence; activity change, negative = inhibition: at 38.4 µM (top of the series) unless noted; note: potency is the fitted concentration of half-maximal effect
Outline: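 GLuc-SERCaMP-expressing SH-SY5Y cells, pretreated 16 h with compound, are challenged with thapsigargin to empty ER calcium stores; after 4 h, coelenterazine is added directly to the medium and luminescence is imaged.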

[20] = Primary qHTS for inhibitors of nuclear receptor binding SET domain protein 2 (NSD2) in an isogenic RCH-ACV NSD2 p.E1099K mutant (9B) (AID 1645876); note: potency is the fitted concentration of half-maximal effect; nearly all actives have a fitted effect of over 70% in size
[21] = Primary qHTS for inhibitors of nuclear receptor binding SET domain protein 2 (NSD2) in an RCH-ACV wild type WT cells (2C) (AID 1645877); settings: activity change, negative = cell killing: at 44.9 µM (top of the series) unless noted; note: nearly all actives have a fitted effect of over 70% in size; note: potency is the fitted concentration of half-maximal effect
[22] = molecular target: Cytochrome P450 2D6 (Homo sapiens) (UniProt P10635); test: Cytochrome P450 family 2 subfamily D member 6 (CYP2D6) small molecule antagonists: luciferase biochemical (cell-free) qHTS assay (AID 1645840; active = well fitted curve in the direction sought with a large enough effect in the repeat runs; inconclusive = weak or mixed curves; inactive = no such curve, though single readings can be large; an effect the other way counts as inactive or inconclusive; note: nearly all actives have a fitted effect of over 55% in size; note: potency is the fitted concentration of half-maximal effect; for activity change, negative = inhibition: % is set by controls: 0 for no effect and ±100 for the full control effect)
Outline: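 P450-Glo luminescent screen: recombinant CYP2D6 enzyme–proluciferin substrate mix preincubated with compound 10 min at room temperature, then NADPH regeneration added for 1 h at room temperature. Detection reagent added for 20 min; luciferin light read as relative luminescence units.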

[23] = molecular target: Cytochrome P450 3A4 (Homo sapiens) (UniProt P08684); test: Cytochrome P450 family 3 subfamily A member 4 (CYP3A4) small molecule antagonists: luciferase qHTS assay (AID 1645841; active = well fitted curve in the direction sought with a large enough effect in the repeat runs; inconclusive = weak or mixed curves; inactive = no such curve, though single readings can be large; an effect the other way counts as inactive or inconclusive; note: potency is the fitted concentration of half-maximal effect; nearly all actives have a fitted effect of over 45% in size)
Outline: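 P450-Glo CYP3A4 enzyme with proluciferin substrate was preincubated with DMSO-dissolved compounds for 10 min at room temperature. NADPH regeneration solution started a 1 h reaction. Detection reagent stopped it, and luminescence was read after 20 min.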

[24] = Primary redox qHTS assay for identification of artifact compounds. (AID 1845223); settings: Amplex Red/HRP redox cycling with DTT, fluorescence; redox activity (% of DA3003): at 53.8 µM (top of the series); note: potency is the fitted concentration of half-maximal effect;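 for redox activity (% of DA3003): 0% = DMSO and 100% = reference compound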
Outline: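 Amplex Red (25 uM) and HRP (250 mU/mL) in HBSS, with compounds for 15 min, then 250 uM DTT for 30 min, room temperature, dark. Fluorescence 525/598 nm read; normalized to DMSO and 10 uM DA3003; Hill fit.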

SKOV3 = test: Primary qHTS to identify gynecologic anti-cancer compounds using libraries of approved drugs and bioactive compounds (AID 1345084); settings: Gynecologic cancer cell panel viability, ATPlite luminescence, 48 h; series mostly up to 57.5 µM; note: nearly all actives have a fitted effect of over 55% in size; note: potency is the fitted concentration of half-maximal effect; for activity change, negative = cytotoxicity: % is set by controls: 0 for no effect and ±100 for the full control effect
Outline: as §1
Tags give direction and shape of the fitted curve.

UniProt P10635, sequence (P10635 whole entry, looked up): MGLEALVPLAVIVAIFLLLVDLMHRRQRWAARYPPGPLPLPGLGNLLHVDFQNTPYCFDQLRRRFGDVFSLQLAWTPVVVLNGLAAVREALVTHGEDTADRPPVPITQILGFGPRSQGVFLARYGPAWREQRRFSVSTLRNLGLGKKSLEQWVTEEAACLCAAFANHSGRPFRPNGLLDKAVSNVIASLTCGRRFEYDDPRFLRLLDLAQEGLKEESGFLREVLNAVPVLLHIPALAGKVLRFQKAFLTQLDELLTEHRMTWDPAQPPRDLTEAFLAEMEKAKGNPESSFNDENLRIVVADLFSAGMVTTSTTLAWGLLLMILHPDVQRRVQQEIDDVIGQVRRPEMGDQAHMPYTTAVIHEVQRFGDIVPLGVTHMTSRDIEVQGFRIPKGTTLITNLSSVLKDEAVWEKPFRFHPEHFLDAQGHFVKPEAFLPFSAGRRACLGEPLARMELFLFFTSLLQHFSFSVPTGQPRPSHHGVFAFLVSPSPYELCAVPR
UniProt P08684, sequence (P08684 whole entry, looked up): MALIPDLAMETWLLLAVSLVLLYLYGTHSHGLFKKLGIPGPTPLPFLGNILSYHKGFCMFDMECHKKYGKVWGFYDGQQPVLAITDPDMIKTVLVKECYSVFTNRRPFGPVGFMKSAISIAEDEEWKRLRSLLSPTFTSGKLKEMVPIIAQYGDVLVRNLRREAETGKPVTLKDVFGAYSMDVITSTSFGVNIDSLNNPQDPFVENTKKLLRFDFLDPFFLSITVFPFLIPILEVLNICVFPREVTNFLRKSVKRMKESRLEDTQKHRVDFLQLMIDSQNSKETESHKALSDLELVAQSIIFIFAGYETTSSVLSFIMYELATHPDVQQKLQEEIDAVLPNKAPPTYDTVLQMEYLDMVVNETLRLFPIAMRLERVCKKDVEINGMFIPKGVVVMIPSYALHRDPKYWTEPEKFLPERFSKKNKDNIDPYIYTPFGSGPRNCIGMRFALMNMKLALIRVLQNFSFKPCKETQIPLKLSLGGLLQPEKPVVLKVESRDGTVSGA

COc1cc(C2OC(c3ccc(OC)c(OC)c3)C(C)C2C)ccc1O (stereo not given)
inconclusive: Potency [1] 14.3 µM [inhibitor, partial curve, poor fit] | Potency [2] 44.7 µM [inhibitor, partial curve] | Potency [3] 11.7 µM [inhibitor, partial curve] | Potency (HEK293) 14.3 µM [inhibitor, partial curve, poor fit]
inactive: Potency (Tov-21-G)

N=C(N)c1ccc(OCCCOc2ccc(C(=N)N)cc2)cc1
inconclusive: Potency [1] 9.2 µM [inhibitor, partial curve, poor fit] | Potency [5] 0.0344 µM [cytotoxic, full curve, poor fit] | Potency [10] 36.9 µM [cytotoxic, single point] | Potency [11] 10.4 µM [cytotoxic, partial curve] | Potency [15] 11.7 µM [rising, single point] | Potency [16] 29.3 µM [cytotoxic, single point] | Potency [19] 2.82 µM [inhibitor, full curve, poor fit] | Potency [20] 33.5 µM [inhibitor, single point] | Potency [21] 29.9 µM [inhibitor, single point] | Potency (Tov-21-G) 2.24 µM [rising, full curve, poor fit]
inactive: Potency [4] | Potency [6] | Potency [7] | Potency [8] | Potency [9] | Potency [12] | Potency [14] | Potency [18]
active: Potency [13] 18.5 µM | Potency [17] 0.465 µM | Potency (HEK293) 7.5 µM

Cc1nc2ccccc2c(-c2ccc3c4c(ccnc24)CCO3)c1[C@H](OC(C)(C)C)C(=O)O
inconclusive: Potency [23] 19 µM [falling, single point] | Potency [24] 7.52 µM [activator, partial curve] | Potency (SKOV3) 8.91 µM [cytotoxic, single point]
inactive: Potency [22] | max response (HEK293) 4.74%

O=C(O)Cc1cn([C@@H]2O[C@H](CO)[C@@H](O)[C@H](O)[C@H]2O[C@@H]2O[C@H](CO)[C@@H](O)[C@H](O)[C@H]2O)c2ccccc12
inconclusive: Potency [3] 8.22 µM [inhibitor, single point]
inactive: Potency [24] | max response (HEK293) 2.13% | Potency (Tov-21-G)

CS(=O)(=O)c1ccccc1N1CCN(c2nc3c(c(=O)[nH]2)CSCC3)CC1
inconclusive: Potency [22] 21.3 µM [inhibitor, partial curve] | Potency [3] 10.6 µM [inhibitor, partial curve, poor fit]
inactive: Potency [21] | max response (HEK293) 1.58% | Potency (SKOV3)
